Reference: the supplement of paper PMC4166925
± gives the standard deviation of the averaged measurements. The full ranking holds about 33,000 sequences; the median of “E-score (dimensionless, -0.5 to 0.5)” is about -0.049, and the highest 2% start at about 0.37. This is one part of the list.

tested on: T1, PmTbr T-box DNA-binding domain (GST fusion); assay: PBM E-score of 8-mer (E-score (dimensionless, -0.5 to 0.5)); Tbr is Tbrain of the sea star Patiria miniata (Pm) or the sea urchin Strongylocentrotus purpuratus (Sp); higher = stronger binding preference; most listed sequences are background and not binding sites; details: the construct has about 5 more residues each side
T1 sequence: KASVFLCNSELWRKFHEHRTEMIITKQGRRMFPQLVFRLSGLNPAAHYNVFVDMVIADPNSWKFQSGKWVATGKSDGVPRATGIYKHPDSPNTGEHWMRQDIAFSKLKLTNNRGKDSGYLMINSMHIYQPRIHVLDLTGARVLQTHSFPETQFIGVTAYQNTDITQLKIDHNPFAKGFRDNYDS
How it was run: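 Using the Universal PBM Analysis Suite, every ungapped 8-mer received an enrichment E-score averaged over duplicate arrays. Probe intensities came from double-stranded Universal Agilent oligonucleotide arrays incubated with 200 nM GST-fused Tbr T-box DNA-binding domain in PBS (pH 7.5). That protein was expressed in BL21 E. coli at 20 °C and purified by glutathione affinity chromatography.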

Sequence | PBM E-score of 8-mer
GGGCGACC | -0.168 ± 0.012
AAATACAC | 0.13 ± 0.046
CAACTGCA | -0.0781 ± 0.015
AGCGCCCC | 0.187 ± 0.059
CTTTGTTA | 0.0892 ± 0.016
CACGCTCG | 0.172 ± 0.081
AGTGCAAA | 0.311 ± 0.036
ACCCGTCA | 0.301 ± 0.029
ATTATGAC | -0.0738 ± 0.063
CGGGACCC | -0.3 ± 0.025
CTTGAGGA | -0.272 ± 0.012
AATGGGAC | -0.0258 ± 0.0075
CACGATCG | 0.155 ± 0.0039
GTGAGCAC | 0.101 ± 0.017
CAGGTGCA | 0.277 ± 0.021
CAAATCGG | 0.0385 ± 0.026
CAACATAA | -0.0105 ± 0.069
AGTGGGTG | 0.251 ± 0.029
AACCCTGG | 0.0108 ± 0.035
CTTTTTGA | 0.247 ± 0.065
CCTTGACA | 0.27 ± 0.0047
ACTTAGCC | -0.0115 ± 0.035

Sequence | PBM E-score of 8-mer
CGCTGTTA | 0.0368 ± 0.0067
AATGTGTG | 0.408 ± 0.014
ACATATCT | -0.00342 ± 0.022
GTGTCGAA | 0.38248 ± 9.9e-05
CCACCACA | 0.117 ± 0.02
AACAAAGG | -0.099 ± 0.002
CCGACTTA | 0.0179 ± 0.14
AGCAGGAG | -0.0716 ± 0.065
AGAGTCAG | -0.379 ± 0.042
ATTGTGTA | 0.0104 ± 0.054
AACCTAAA | -0.034 ± 0.094
AGATGATA | -0.0267 ± 0.12
CACACTTC | 0.445 ± 0.005
CCCGTCAA | 0.192 ± 0.0077
CATTGCCG | 0.0765 ± 0.039
AGTAGACA | 0.00012 ± 0.051
GAAGCCAC | -0.0904 ± 0.026
AAACAGCT | 0.117 ± 0.05
GAAGCAGA | -0.105 ± 0.043
GATGAATA | -0.116 ± 0.016
AGGTACGA | 0.0181 ± 0.018
TAGAGCCA | 0.0491 ± 0.0064

Sequence | PBM E-score of 8-mer
CATGAGTC | -0.0716 ± 0.022
AATGAATC | -0.277 ± 0.0033
CACTTCTG | 0.3 ± 0.039
AGCTGCTA | 0.202 ± 0.049
CACTAATC | 0.155 ± 0.011
GCTACGAC | 0.00882 ± 0.05
CATTTTTA | -0.0361 ± 0.089
CAGCGCGC | 0.0127 ± 0.026
AACGACTC | -0.00826 ± 0.037
ACCGGCAG | 0.0302 ± 0.0023
CTGGAAAC | -0.276 ± 0.079
GCTACACA | 0.00256 ± 0.053
CTACATTC | -0.292 ± 0.08
GGAAAACC | -0.0445 ± 0.061
GCCCGTCA | -0.0107 ± 0.082
CTATTCCC | -0.194 ± 0.035
ATTGGGAA | -0.0968 ± 0.048
GACGTTCA | -0.114 ± 0.046
GCGGCCCA | -0.358 ± 0.054
TGCTTTAA | -0.0842 ± 0.071
AATCCTGA | -0.0518 ± 0.0094
CATGTTCA | 0.0108 ± 0.035

Sequence | PBM E-score of 8-mer
CCCTTACA | 0.0775 ± 0.053
CCGAGTGC | 0.0175 ± 0.059
CACGAATC | 0.044 ± 0.0014
CGTATACA | -0.137 ± 0.011
ATTAGTAA | -0.0931 ± 0.011
ATCGTTCG | 0.15 ± 0.074
GAGCCCTA | -0.268 ± 0.037
GTTCTTGA | -0.19 ± 0.0029
CATCCATC | -0.182 ± 0.0099
GCGTCGAC | 0.119 ± 0.024
TGCGGAAA | 0.0593 ± 0.022
CACTAGAG | 0.00874 ± 0.031
AGTCGCGG | 0.0686 ± 0.037
ACGTTACA | -0.0906 ± 0.04
TCTCGAAA | 0.0424 ± 0.034
CGGGCTAG | -0.208 ± 0.032
GGTGGAAC | -0.0137 ± 0.046
AACAGCGG | -0.0252 ± 0.0036
AGCTTTGC | 0.0439 ± 0.036
AAGTCCCG | -0.0424 ± 0.069
AAATTGTC | 0.137 ± 0.049
ACGAGAAA | -0.00374 ± 0.034

Sequence | PBM E-score of 8-mer
AAGTTAAT | -0.107 ± 0.036
ACATATCC | -0.0724 ± 0.065
ACTGTTCC | -0.0486 ± 0.031
GAGCCTCC | -0.253 ± 0.035
TAGATGCA | -0.281 ± 0.067
CCCTTCCA | -0.1 ± 0.073
GATTGAAC | -0.143 ± 0.015
ACGATATC | 0.111 ± 0.0075
ACCCAACT | -0.0184 ± 0.071
AATTGTTA | 0.173 ± 0.08
CAATAAAC | -0.0819 ± 0.1
AACCCCGC | 0.1313 ± 0.0012
AATGCTCG | -0.114 ± 0.014
CAAAAACA | 0.0289 ± 0.033
TACTCAAA | -0.0222 ± 0.072
CCGTGTTC | -0.0125 ± 0.027
CCAGCCTA | -0.0317 ± 0.035
ACCGATCA | -0.119 ± 0.12
ACTTTGCA | 0.168 ± 0.015
ATTGGTAC | -0.0718 ± 0.029
TACATGCA | -0.278 ± 0.068
